The test system of the assay is NCI-H322M lung. The assay can be described thus: NCI tumour cell line growth inhibition, 48 h.

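96-well plates; 48 h exposure; 5 concentrations. Endpoints by linear interpolation between flanking doses. Not reached: highest tested concentration assigned. Here, GI50 denotes the concentration required for 50% inhibition of growth. TGI: total growth inhibition.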

Take `COc1cccc(-c2nn(-c3ccccc3)cc2-c2ccnc(NCCNC(=O)Nc3ccc(Cl)c(Cl)c3)c2)c1`: the GI50 was 2.24 µM and the TGI came out at 10.2 µM.
As to `CCCCCCCCCCCCOC1C(COCCN2CCCC2)OC2OC(C)(C)OC21` (stereo not drawn), the TGI was 23.2 µM.
For the molecule `Cc1ccc([P+](Cc2ccc([N+](=O)[O-])cc2)(c2ccc(C)cc2)c2ccc(C)cc2)cc1`, the GI50 is 12.2 µM and the TGI turned out to be 27 µM.
`[N-]=[N+]=NC1(c2ccccc2)C(=O)Nc2ccccc2C1=O` (stereo not drawn): the TGI is more than 100 µM.
In the case of `CN1C(=O)c2cc(Cl)nc3c(NC(=O)c4cccc(Cl)c4)c(Cl)c(NC(=O)c4cccc(Cl)c4)c1c23`, the GI50 was 2.95 µM and the TGI was found to be 12 µM.
The corresponding values for `COC(=O)[C@H](Cc1ccccc1)NC(=O)c1csc([C@@H](C[C@H](C(C)C)N(C)C(=O)[C@@H](NC(=O)[C@H]2CCCCN2C)C2CC2)OC(C)=O)n1` are 0.151 µM and more than 25 µM.
Turning to `Cc1nnc([S-])s1.[Au+].c1ccc([PH+](c2ccccc2)c2ccccc2)cc1`, the GI50 was 1.68 µM and the TGI turned out to be 3.05 µM.
On to `CC1=C(C#N)C(N)=C2C(C)=C(C#N)C(N)=C12`, for which the TGI is more than 100 µM.
Take `O=C1C=CC(=O)c2c(O)c(N3CCSCC3)c(Cl)c(O)c21`: the TGI was 1.85 µM.
Same read-out and setting: to `COc1cc(C(=O)Nc2nnc(S(N)(=O)=O)s2)cc(OC)c1OC` belongs more than 100 µM.
`NC1=NS(=O)(=O)N=C(N)C1=Cc1ccc([N+](=O)[O-])o1` displayed a TGI of more than 100 µM.
The molecule `CCOC(=O)/C=C1\Nc2ccccc2C12CCc1c([nH]c3ccccc13)C2C(=O)OCC` (stereo not drawn) gave a TGI of more than 100 µM.
As to `N#Cc1c(=O)c2cccnc2n2c1[nH]c1ccccc12`, the TGI was more than 100 µM.
Same read-out and setting: next, `CCCCC[C@H](O)[C@H](C)C=C1SCCCS1`: more than 100 µM.
In the case of `O=C(/C=C/N1CCN(c2cccc(C(F)(F)F)c2)CC1)c1ccc(Cl)cc1Cl`, the GI50 is 26.6 µM and the TGI was 68.4 µM.
`O=C1C/C(=C\O)C(=O)c2ccccc2N1` showed a TGI of more than 100 µM.
The same measure, in the same setting: next, `CCCCCCCCCCCCC(=O)NCC(=O)NC(Cc1ccccc1)C(=O)Oc1ccc([N+](=O)[O-])cc1` (stereo not drawn): more than 100 µM.
On the same count and under the same terms, to `CN(C)c1ccc(-c2nc(-c3cc4c(ccc5ccccc54)oc3=O)cs2)cc1` belongs more than 100 µM; to `O=C(Nc1cccc2nsnc12)c1cc2c(cc1Cl)Sc1nccn1S2(=O)=O`, 6.24 µM; to `CC1CCC(O)C(C(O)CC2CC(=O)N(C)C(=O)C2)C1` (stereo not drawn), more than 100 µM.
On the same count and under the same terms, next, `C/C(=N\N=C(N)N)c1c(C(=O)OCCCCCCOC(=O)c2nc3sccn3c2/C(C)=N/N=C(N)N)nc2sccn12`: more than 100 µM.
The molecule `O=C1/C(=C/c2cccc(Oc3ccccc3)c2)N=C(c2ccccc2)N1c1nc2ccc(Sc3ccccc3)cc2[nH]1` showed a TGI of more than 100 µM.
In the case of `CC(C)OP(=O)(OC(C)C)C(N(C)C)P(=O)(OC(C)C)OC(C)C.[Cl][Sn]([Cl])([Cl])[c]1ccccc1`, the GI50 was 3.89 µM and the TGI amounted to 44.9 µM.
`COc1c(O)c(OC)c(C(=O)/C=C/c2ccccc2)c(O)c1OC` had a TGI of more than 100 µM.
On the same count and under the same terms, to `CN(C)c1ccc(/C=C(\NC(=O)c2ccccc2)C(=O)Nc2ccccc2C(=O)NN2C(=O)CSC2c2ccc(N(C)C)cc2)cc1` (stereo not drawn) belongs more than 100 µM; to `CC(=O)Oc1ccc2cc(Oc3ccc(Cl)cc3)c(=O)oc2c1`, more than 100 µM.
On the same count and under the same terms, next, `CC1=CC2=C(C)C3(CC3)[C@@](C)(O)C(=O)C2=C1`: more than 1 µM; `NC(Cc1nn[nH]n1)C(=O)O` (stereo not drawn): more than 100 µM.
The same measure, in the same setting: next, `COc1ccc(N2C(=O)C3c4[nH]c5ccc(C)cc5c4C4CCC(C(C)C)CC4C3C2=O)cc1` (stereo not drawn): more than 100 µM.
Regarding `Nc1ncnc2occ(-c3ccc(NC(=O)Nc4cc(C(F)(F)F)cc(C(F)(F)F)c4)cc3)c12`, the GI50 was 3.5 µM and the TGI amounted to 8.23 µM.
Consider `O=C(OCc1ccccc1CN1CCOCC1)c1ccc(Br)cc1`, for which the TGI was more than 100 µM.
Molecule `CCOC(=O)c1cnc2[nH]c(=O)c3ccccc3n2c1=O` came in with a TGI of more than 100 µM.
On to `COc1cc(C2C3=C(COC3=O)N(CCO)c3cc4c(cc32)CCC4)cc(OC)c1O` (stereo not drawn), for which the GI50 is 1.07 µM and the TGI was more than 32.5 µM.
As for `OC(CC(c1ccccc1)c1ccc(Cl)cc1)c1ccc(Cl)cc1` (stereo not drawn), the TGI is more than 100 µM.
`Cc1ccc(S(=O)(=O)Nn2c(-c3ccccc3)c(C#N)c(-c3ccc([N+](=O)[O-])cc3)c(C#N)c2=O)cc1` yielded a TGI of more than 100 µM.
As to `O=C1OC(c2ccc(O)cc2)(c2ccc(O)cc2)c2cccc3cccc1c23`, the GI50 was 12.5 µM and the TGI came out at 26.4 µM.
`O=C1OCC(C(=O)c2cccc(O)c2)C1=O` (stereo not drawn): the TGI was more than 100 µM.
`O=C1CSC2(CC(/C=C/C=C/c3ccccc3)=NN2c2cccc(S(=O)(=O)O)c2)N1c1nc2ccccc2s1` (stereo not drawn) registered a TGI of more than 100 µM.
Take `COc1cc(C(c2cc3c(cc2O)OCO3)N2CCCC2)cc(OC)c1OC` (stereo not drawn): the TGI is more than 100 µM.
The same measure, in the same setting: to `COc1cc(S(=O)(=O)Nc2nc(-c3ccc(N4C(=O)/C(=C/c5ccccc5)N=C4c4ccccc4)cc3)cs2)ccc1Cl` belongs more than 100 µM.
Still for that read-out and setting: to `CN1CC2(CCCCC2)C(O)C12C=CCCC2` (stereo not drawn) belongs more than 100 µM; to `CCOC(=O)CCC1(C(=O)OC)CCCC1=O` (stereo not drawn), more than 100 µM; to `Cc1cc(CS(=O)(=O)/C=C/c2ccccc2[N+](=O)[O-])c(CS(=O)(=O)/C=C/c2ccccc2[N+](=O)[O-])cc1C`, more than 100 µM.
For the molecule `COC(=O)C(C)N1C(=O)c2ccccc2I1OC(C)=O` (stereo not drawn), the GI50 is more than 100 µM and the TGI is more than 100 µM.
As for `O=C1c2cc3c(cc2CC12Cc1cc4c(cc1C2)CCC4)CCC3`, the TGI is more than 100 µM.
Same read-out and setting: next, `CCCCN(CCCC)C(=NCc1ccccc1)NC#N`: more than 100 µM.
The molecule `O=C1c2cc([N+](=O)[O-])ccc2NC2C(O)c3ccccc3N12` (stereo not drawn) had a TGI of more than 100 µM.
Regarding `COc1ccccc1C1C(C#N)=C(N)OC2=C1C(=O)CCC2` (stereo not drawn), the GI50 is more than 100 µM and the TGI was more than 100 µM.
With `C[C@@H](NC(=O)Cc1cc(F)cc(F)c1)C(=O)N[C@@]1(C)N=C(c2ccccc2)c2ccccc2N(C)C1=O`, the GI50 was 41.8 µM and the TGI is more than 100 µM.
`CC(C)=CC(=O)O[C@@H]1CC(C)(C)CC2C3=CCC4[C@]56CC[C@](O)(OC5)C(C)(C)C6CC[C@@]4(C)C3(C)CC[C@]21C(=O)O` (stereo partly drawn): the TGI was more than 100 µM.
In the case of `CCN(CC)CCOc1ccc(/C=C2\C[C@H]3[C@@H]4CC=C5C[C@@H](OC(C)=O)CC[C@]5(C)[C@H]4CC[C@]3(C)[C@H]2OC(C)=O)cc1OC`, the GI50 was 10.9 µM and the TGI turned out to be 19.6 µM.
Consider `COC(=O)Cc1c(C2=Nc3ccccc3C2(O)CC(=O)OC)[nH]c2ccccc12` (stereo not drawn), for which the TGI is more than 100 µM.
On the same count and under the same terms, to `O=C(c1ccccc1F)c1c(NCc2ccccc2)c(=O)c1=O` belongs more than 100 µM; to `CC1=NNC(N)=N/C1=C/C(Sc1ccc(Cl)cc1)c1cccs1` (stereo not drawn), 88.6 µM.
Still for that read-out and setting: to `COc1cn2c(cc1=O)COc1ccc(-c3ccccc3)cc1-2` belongs more than 100 µM; to `c1ccc(C2=NN3CN(N2)c2ccccc2OCCCOc2ccccc23)cc1`, more than 100 µM; to `O=C(Oc1c(I)ccccc1=O)c1ccc([N+](=O)[O-])cc1`, more than 100 µM.
`O=S1(=O)NNC(=NCc2ccc(F)cc2)c2ccccc21` had a TGI of more than 100 µM.
Consider `CCCCn1cc(C(=O)O)c(=O)c2c3sccc3ccc21`, for which the TGI is more than 100 µM.
